Experimental data reported in the supplement of paper PMC11741623.
Some of the results follow. Interaction screen of human proteins with wild-type SARS-CoV-2 proteins by split-DHFR complementation in yeast, 1 µg/mL methotrexate. Value = fitness of the pair (three or more lineages) minus that of the viral protein without a human partner, on a scale set by negative (0) and fused positive (1) controls, mean of up to three cultures; higher = more likely to interact. Active = false discovery rate below 0.05 (one-sided t-test) in at least one culture. Nearly all pairs are not hits, and differences among them are mostly noise (correlation between cultures about 0.3); most hits were seen in one culture only. Human sequences are the Swiss-Prot entries looked up by gene name; the clone may be another isoform. NSP2 values were corrected by the authors for a growth advantage. Listed are human proteins with a hit and a random twelfth of the others.

B1: CALD1, Q05682 (protein)
chain: MDDFERRRELRRQKREEMRLEAERIAYQRNDDDEEEAARERRRRARQERLRQKQEEESLGQVTDQVEVNAQNSVPDEEAKTTTTNTQVEGDDEAAFLERLARREERRQKRLQEALERQKEFDPTITDASLSLPSRRMQNDTAENETTEKEEKSESRQERYEIEETETVTKSYQKNDWRDAEENKKEDKEKEEEEEEKPKRGSIGENQVEVMVEEKTTESQEETVVMSLKNGQISSEEPKQEEEREQGSDEISHHEKMEEEDKERAEAERARLEAEERERIKAEQDKKIADERARIEAEEKAAAQERERREAEERERMREEEKRAAEERQRIKEEEKRAAEERQRIKEEEKRAAEERQRIKEEEKRAAEERQRARAEEEEKAKVEEQKRNKQLEEKKHAMQETKIKGEKVEQKIEGKWVNEKKAQEDKLQTAVLKKQGEEKGTKVQAKREKLQEDKPTFKKEEIKDEKIKKDKEPKEEVKSFMDRKKGFTEVKSQNGEFMTHKLKHTENTFSRPGGRASVDTKEAEGAPQVEAGKRLEELRRRRGETESEEFEKLKQKQQEAALELEELKKKREERRKVLEEEEQRRKQEEADRKLREEEEKRRLKEEIERRRAEAAEKRQKMPEDGLSDDKKPFKCFTPKGSSLKIEERAEFLNKSVQKSSGVKSTHQAAIVSKIDSRLEQYTSAIEGTKSAKPTKPAASDLPVPAEGVRNIKSMWEKGNVFSSPTAAGTPNKETAGLKVGVSSRINEWLTKTPDGNKSPAPKPSDLRPGDVSSKRNLWEKQSVDKVTSPTKV
B2: GCG, P01275 (protein)
chain: MKSIYFVAGLFVMLVQGSWQRSLQDTEEKSRSFSASQADPLSDPDQMNEDKRHSQGTFTSDYSKYLDSRRAQDFVQWLMNTKRNRNNIAKRHDEFERHAEGTFTSDVSSYLEGQAAKEFIAWLVKGRGRRDFPEEVAIVEELGRRHADGSFSDEMNTILDNLAARDFINWLIQTKITDRK
B3: APOC4, P55056 (protein)
chain: MSLLRNRLQALPALCLCVLVLACIGACQPEAQEGTLSPPPKLKMSRWSLVRGRMKELLETVVNRTRDGWQWFWSPSTFRGFMQTYYDDHLRDLGPLTKAWFLESKDSLLKKTHSLCPRLVCGDKDQG
B4: ANKRD33, Q7Z3H0 (protein)
chain: MKVQPSVTCVASWGGIVHLEAFGDPVIVLRGAWAVPRVDCLIDTLRTPNASCMRKGTHLLVPCLEEEELALHRRRLDMSEALPCPGKETPTPGCRLGALYWACVHNDPTQLQAILDGGVSPEEATQVDSNGRTGLMVACYHGFQSVVALLSHCPFLDVNQQDKGGDTALMLAAQAGHVPLVSLLLNYYVGLDLERRDQRGLTALMKAAMRNRCADLTAVDPVRGKTALEWAVLTDSFDTVWRIRQLLRRPQVEQLSQHYKPEWPALSGLVAQAQAQAQVAPSLLERLQATLSLPFAPSPQEGGVLDHLVTATTSLASPFVTTACHTLCPDHPPSLGTRSKSVPELLGTAPPPPLVPQSPPGSPQRSPWVFVPYQSPQGILSKCLQWLQPRDSTSPRPQVPKILLSKASSSSHQCQPKPSPSGHQSLALPLWRYQELRIEKRKQEEEARMAQK

biological target: SARS-CoV-2 E; assay: yeast fitness gain over the viral ORF with no human partner (scaled fitness); higher = more likely to interact
Protocol: (§1)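 Split mouse DHFR complementation in pooled diploid yeast: human ORFeome clones carry one fragment and viral ORFs the other; barcoded lineages compete in 1 µg/mL methotrexate and fitness is read by barcode sequencing in up to three cultures.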

| Binder | yeast fitness gain |
| --- | --- |
| B1 | inactive: -0.0189 |
| B2 | inactive: -0.101 |
| B3 | inactive: -0.0179 |
| B4 | inactive: -0.0746 |

biological target: SARS-CoV-2 M; assay: as above
Protocol: as §1

| Binder | yeast fitness gain |
| --- | --- |
| B1 | inactive: 0.0178 |
| B2 | inactive: -0.108 |
| B3 | inactive: 0.0152 |
| B4 | inactive: 0.0519 |

biological target: SARS-CoV-2 N; assay: as above
Protocol: as §1

| Binder | yeast fitness gain |
| --- | --- |
| B1 | inactive: -0.00631 |
| B3 | inactive: 0.0325 |
| B4 | inactive: 0.0201 |

biological target: SARS-CoV-2 NSP1; assay: as above
Protocol: as §1

| Binder | yeast fitness gain |
| --- | --- |
| B1 | inactive: 0.0529 |
| B3 | inactive: -0.0928 |
| B4 | inactive: 0.059 |

biological target: SARS-CoV-2 NSP10; assay: as above
Protocol: as §1

| Binder | yeast fitness gain |
| --- | --- |
| B1 | inactive: -0.036 |
| B2 | inactive: -0.00824 |
| B3 | inactive: -0.0885 |
| B4 | inactive: -0.0558 |

biological target: SARS-CoV-2 NSP12; assay: as above
Protocol: as §1

| Binder | yeast fitness gain |
| --- | --- |
| B1 | inactive: -0.0956 |
| B2 | inactive: 0.125 |
| B3 | inactive: 0.0396 |
| B4 | inactive: -0.115 |

biological target: SARS-CoV-2 NSP13; assay: as above
Protocol: as §1

| Binder | yeast fitness gain |
| --- | --- |
| B1 | inactive: -0.000284 |
| B2 | inactive: -0.0489 |
| B3 | inactive: 0.0627 |
| B4 | inactive: 0.0116 |

biological target: SARS-CoV-2 NSP14; assay: as above
Protocol: as §1

| Binder | yeast fitness gain |
| --- | --- |
| B1 | inactive: 0.0907 |
| B3 | inactive: 0.0386 |

biological target: SARS-CoV-2 NSP15; assay: as above
Protocol: as §1

| Binder | yeast fitness gain |
| --- | --- |
| B1 | inactive: 0.0609 |
| B2 | inactive: -0.0104 |
| B3 | inactive: 0.0155 |
| B4 | inactive: -0.0833 |

biological target: SARS-CoV-2 NSP16; assay: as above
Protocol: as §1

| Binder | yeast fitness gain |
| --- | --- |
| B1 | inactive: 0.0531 |
| B3 | inactive: -0.117 |
| B4 | inactive: -0.0333 |

biological target: SARS-CoV-2 NSP2; assay: as above
Protocol: as §1

| Binder | yeast fitness gain |
| --- | --- |
| B1 | active: 0.183 |
| B2 | inactive: -0.148 |
| B3 | inactive: -0.0656 |
| B4 | inactive: -0.0743 |

biological target: SARS-CoV-2 NSP4; assay: as above
Protocol: as §1

| Binder | yeast fitness gain |
| --- | --- |
| B1 | inactive: -0.0174 |
| B3 | inactive: 0.124 |
| B4 | inactive: 0.0168 |

biological target: SARS-CoV-2 NSP5; assay: as above
Protocol: as §1

| Binder | yeast fitness gain |
| --- | --- |
| B1 | inactive: 0.0459 |
| B3 | inactive: 0.0261 |
| B4 | inactive: -0.00863 |

biological target: SARS-CoV-2 NSP6; assay: as above
Protocol: as §1

| Binder | yeast fitness gain |
| --- | --- |
| B1 | inactive: -0.174 |
| B2 | inactive: 0.0387 |
| B3 | inactive: -0.0751 |
| B4 | inactive: 0.0539 |

biological target: SARS-CoV-2 NSP7; assay: as above
Protocol: as §1

| Binder | yeast fitness gain |
| --- | --- |
| B1 | inactive: 0.0503 |
| B3 | inactive: 0.0253 |
| B4 | inactive: 0.0115 |

biological target: SARS-CoV-2 NSP8; assay: as above
Protocol: as §1

| Binder | yeast fitness gain |
| --- | --- |
| B1 | inactive: 0.0792 |
| B2 | inactive: -0.154 |
| B3 | inactive: 0.0544 |
| B4 | inactive: -0.0387 |

biological target: SARS-CoV-2 NSP9; assay: as above
Protocol: as §1

| Binder | yeast fitness gain |
| --- | --- |
| B1 | inactive: -0.124 |
| B3 | inactive: -0.0025 |
| B4 | inactive: 0.154 |

biological target: SARS-CoV-2 ORF10; assay: as above
Protocol: as §1

| Binder | yeast fitness gain |
| --- | --- |
| B1 | inactive: 0.0433 |
| B3 | inactive: 0.0176 |
| B4 | inactive: 0.0315 |

biological target: SARS-CoV-2 ORF3A; assay: as above
Protocol: as §1

| Binder | yeast fitness gain |
| --- | --- |
| B1 | inactive: 0.183 |
| B3 | inactive: 0.0619 |
| B4 | inactive: -0.00609 |

biological target: SARS-CoV-2 ORF3B; assay: as above
Protocol: as §1

| Binder | yeast fitness gain |
| --- | --- |
| B1 | inactive: -0.0394 |
| B2 | inactive: 0.0702 |
| B3 | inactive: 0.0524 |
| B4 | inactive: 0.0447 |

biological target: SARS-CoV-2 ORF6; assay: as above
Protocol: as §1

| Binder | yeast fitness gain |
| --- | --- |
| B1 | inactive: 0.00875 |
| B2 | inactive: 0.0443 |
| B3 | inactive: -0.0194 |
| B4 | inactive: -0.00267 |

biological target: SARS-CoV-2 ORF7A; assay: as above
Protocol: as §1

| Binder | yeast fitness gain |
| --- | --- |
| B1 | inactive: -0.0495 |
| B2 | inactive: -0.0121 |
| B3 | inactive: 0.0165 |
| B4 | inactive: 0.0219 |

biological target: SARS-CoV-2 ORF7B; assay: as above
Protocol: as §1

| Binder | yeast fitness gain |
| --- | --- |
| B1 | inactive: -0.0488 |
| B2 | inactive: -0.04 |
| B3 | inactive: 0.0568 |
| B4 | inactive: 0.0302 |

biological target: SARS-CoV-2 ORF8; assay: as above
Protocol: as §1

| Binder | yeast fitness gain |
| --- | --- |
| B1 | inactive: 0.0392 |
| B2 | inactive: -0.107 |
| B3 | inactive: -0.0352 |
| B4 | inactive: -0.00179 |

biological target: SARS-CoV-2 ORF9B; assay: as above
Protocol: as §1

| Binder | yeast fitness gain |
| --- | --- |
| B1 | inactive: 0.0738 |
| B2 | inactive: -0.139 |
| B3 | inactive: -0.0241 |
| B4 | inactive: 0.0185 |

biological target: SARS-CoV-2 ORF9Bwu (the 73-codon ORF); assay: as above
Protocol: as §1

| Binder | yeast fitness gain |
| --- | --- |
| B1 | inactive: -0.0138 |
| B2 | inactive: 0.0666 |
| B3 | inactive: 0.0865 |
| B4 | inactive: 0.00431 |

biological target: SARS-CoV-2 S; assay: as above
Protocol: as §1

| Binder | yeast fitness gain |
| --- | --- |
| B1 | inactive: 0.12 |
| B2 | inactive: 0.0352 |
| B3 | inactive: -0.025 |
| B4 | inactive: -0.0519 |
